Here are results for 48 compounds from PubChem BioAssay AID1508642 (National Center for Advancing Translational Sciences (NCATS), 2021).

Screen size: about 43,000 compounds; about 200 (0.47%) were called active. About 12% were inconclusive and are not listed. Calls follow the shape of the dose curve; as a rule, active = well fitted cell-killing curve with a large enough effect; inconclusive = small, poorly fitted or top-dose-only effect, or effect the other way; inactive = flat fitted curve, though single readings scatter. Some of the results follow.
% is scaled to controls: 0 for no effect and ±100 for the full control effect.

The experiment in a line: Cell viability qHTS assay in S16 Pmp22-F2sN cells. Also: nearly all actives have a fitted effect of over 65% in size. Conditions: S16 Pmp22-F2sN Schwann cells viability, CellTiter-Glo, 24 h; series mostly up to 57.5 µM; activity change, negative = cytotoxicity: at the top concentration. The essentials:
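S16 Pmp22-F2sN Schwann cells (500-1,000/well) in phenol-red-free DMEM with 10% FBS received 23 nL compound by pin tool for 24 h at 37 °C. Viability was then read as CellTiter-Glo luminescence after 15 min at room temperature.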
Consider `Cc1ccc(NC(=O)CSCn2nnc3c(=O)[nH]c(Cc4ccc(F)cc4)nc32)c(C)c1`, for which the “activity change, negative = cytotoxicity” value is inactive: -13.3%.

In the case of `Oc1ccc(-c2nc3ccccn3c2Nc2ccc3c(c2)OCCO3)cc1`, the “activity change, negative = cytotoxicity” value is inactive: 1.62%.

`CCn1cc(S(=O)(=O)c2ccc(OC)cc2)c(=O)c2cc(F)c(N3CCC(C)CC3)cc21`: the “activity change, negative = cytotoxicity” value was inactive: -0.592%. With `CCCN(CCC)CCCNC(=O)C1CCC(CNS(=O)(=O)c2cccc3nsnc23)CC1` (stereo not drawn), the “activity change, negative = cytotoxicity” value is inactive: -1.77%. As to `CCOc1ccc(CNC(=O)C2CCN(S(=O)(=O)N3CCCCC3)CC2)cc1`, the “activity change, negative = cytotoxicity” value is inactive: 12.7%. With `CCCc1nn2c(=O)cc(COC(=O)c3cccc(NC(=O)CCc4ccccc4)c3)nc2s1`, the “activity change, negative = cytotoxicity” value is inactive: 0.0808%. As for `NCCCCCc1nnc(SCc2ccc(F)cc2)o1`, the “activity change, negative = cytotoxicity” value was inactive: 14.5%. For the compound `COCCCNC(=O)c1ccc2nc(Cc3ccc(OC)cc3)oc2c1`, the “activity change, negative = cytotoxicity” value is inactive: -1.33%.

With `COc1cccc(C(=O)Nc2cc(-c3cn4cccnc4n3)ccc2C)c1OC`, the “activity change, negative = cytotoxicity” value is inactive: 1.43%. For the compound `CCOc1ccc(NC(=O)c2sc3nc4c(cc3c2N)CCCCCC4)cc1`, the “activity change, negative = cytotoxicity” value was inactive: -0.103%.

`O=C(c1cccs1)N(Cc1cccnc1)c1nc2ccc(F)cc2s1`: the “activity change, negative = cytotoxicity” value is inactive: -6.12%. Under `Cc1ccc(OCC(=O)Nc2ccccc2C(=O)OCc2cc(=O)n3nc(C4CC4)sc3n2)cc1` stands inactive: -1.09%; under `Cc1nc2ccccn2c(=O)c1NC(=O)c1c(F)cccc1F`, inactive: -1.38%. For the compound `CC1CCN(C(=O)c2c(NC(=O)c3ccccc3F)sc3c2CCC(C(C)(C)C)C3)CC1` (stereo not drawn), the “activity change, negative = cytotoxicity” value is inactive: -2.88%. On to `Cc1ccc(NC(=O)C2CCCN(c3ncnc4c3nc3n4CCCCC3)C2)cc1F` (stereo not drawn), for which the “activity change, negative = cytotoxicity” value is inactive: -12.5%. Regarding `O=C(Cc1csc2ccccc12)NCc1cccc(Br)c1`, the “activity change, negative = cytotoxicity” value is inactive: -2.75%. Turning to `CN(C)S(=O)(=O)n1cc(/C=C(\NC(=O)c2ccccc2F)C(=O)NCCCn2ccnc2)c2ccccc21`, the “activity change, negative = cytotoxicity” value was inactive: 10.4%. Consider `Cc1ccccc1CN1CCC(CNc2ncnc3onc(-c4ccc(Cl)cc4)c23)CC1`, for which the “activity change, negative = cytotoxicity” value is inactive: -0.718%. With `COc1ccc(Nc2c(-c3ccc(Cl)cc3)nc3cnccn23)cc1OC`, the “activity change, negative = cytotoxicity” value was inactive: -9.83%. Take `CCC12CN3CC(C)(CN(C1)C3c1ccc(O)cc1O)C2=O` (stereo not drawn): the “activity change, negative = cytotoxicity” value is inactive: -2.28%. With `Cc1cc(C)cc(Oc2coc3c(CN4CCN(C)CC4)c(O)ccc3c2=O)c1`, the “activity change, negative = cytotoxicity” value is inactive: 1.31%.

For `CCOc1ccc(NC(=O)c2c(NC(=O)c3ccco3)sc3c2CCC(C(C)(C)C)C3)cc1` (stereo not drawn), the “activity change, negative = cytotoxicity” value is inactive: 4.77%. With `O=C(O)CC(NS(=O)(=O)c1ccc(Cl)s1)c1ccccc1` (stereo not drawn), the “activity change, negative = cytotoxicity” value was inactive: 1.78%.

Regarding `Cc1nc2cccnc2n1-c1cccc(C(=O)NCc2ccc(OC(C)C)cc2)c1`, the “activity change, negative = cytotoxicity” value was inactive: -22.2%.

Take `O=C(Nc1cccc(C(F)(F)F)c1)C1CCN(c2nnc(-n3cccc3)s2)CC1`: the “activity change, negative = cytotoxicity” value was inactive: -4.97%. For `COc1cc(NS(=O)(=O)c2ccc(NC(=O)C(C)Oc3ccc(Cl)cc3Cl)cc2)nc(OC)n1` (stereo not drawn), the “activity change, negative = cytotoxicity” value is inactive: 3.18%. Consider `Cc1ccc(Nc2cc(C)nc3nc(Cc4ccc(Cl)cc4)nn23)cc1`, for which the “activity change, negative = cytotoxicity” value is inactive: -3.73%. In the case of `COc1cccc(CNC(=O)Cn2c(=O)oc3cc(S(=O)(=O)N4CCCC4)ccc32)c1`, the “activity change, negative = cytotoxicity” value was inactive: -12.7%. With `Cc1ccc(-c2ccc(=O)n(Cc3ccc(F)cc3)n2)cc1`, the “activity change, negative = cytotoxicity” value is inactive: -27.5%. `CCC(=O)N1CCc2cc(Br)cc(S(=O)(=O)CCC(=O)Nc3cccc(CC)c3)c21`: the “activity change, negative = cytotoxicity” value is inactive: -18.5%. As for `COc1cccc(CNC(=O)c2nnn(CC(=O)Nc3cc(Cl)ccc3C)c2N)c1`, the figure is inactive: 7.84%. `O=S(=O)(c1ccc(F)cc1)N1CCC(Oc2ccc(-n3cnnn3)cc2)CC1`: the “activity change, negative = cytotoxicity” value is inactive: 4.94%.

On to `CC(NC(=O)C1(c2cccs2)CCOCC1)c1ccccc1` (stereo not drawn), for which the “activity change, negative = cytotoxicity” value was inactive: 20%. For `CCn1cc(C(=O)N2CCN(c3cc(Cl)ccc3C)CC2)c2cc(OC)c(OC)cc2c1=O`, the “activity change, negative = cytotoxicity” value was inactive: 18.3%. Consider `Cc1ccc(CN2CCSc3ccc(C(=O)Nc4ccc(Cl)cc4)cc32)cc1`, for which the “activity change, negative = cytotoxicity” value is inactive: 1.66%. As for `CCOc1ccc(CCNC(=O)CCCc2cc(-c3ccc(OCC)cc3)on2)cc1`, the figure is inactive: 5.07%. As for `CCOc1ccc(C(=O)Nc2c(C(=O)c3ccccc3)oc3ccccc23)cc1`, the figure is inactive: 7.4%; as for `Cc1nc(N2CCCC2)c2c(C(=O)Nc3ccc(C)c(Cl)c3)c(C)oc2n1`, inactive: 0.621%; as for `CCOc1ccccc1C1N=C(N)Nc2nc3ccccc3n21` (stereo not drawn), inactive: 7.4%. Regarding `CCC(CC)C(=O)Nc1cc(-c2cn3cccnc3n2)ccc1OC`, the “activity change, negative = cytotoxicity” value is inactive: 5.35%. For `Cc1ccccc1-c1nnc(CN2CCN(c3cc(Cl)ccc3C)CC2)o1`, the “activity change, negative = cytotoxicity” value was inactive: -0.402%. Turning to `CCOC(=O)N1CCC(NC(=O)c2ccc3c(c2)N(Cc2cccc(C)c2)C(=O)c2ccccc2S3(=O)=O)CC1`, the “activity change, negative = cytotoxicity” value was inactive: -1.72%. Under `COc1ccc(C(CC(=O)Nc2ccc(C)cn2)N2Cc3ccccc3C2=O)cc1OC` (stereo not drawn) stands inactive: 8.66%. Regarding `N#C/C(=C\c1ccc(-c2ccccc2C(=O)O)o1)c1nc2ccccc2[nH]1`, the “activity change, negative = cytotoxicity” value was inactive: -11.9%. Under `Cc1cc(-c2ccc(C)c(S(=O)(=O)N3CCCC(C)C3)c2)on1` (stereo not drawn) stands inactive: -16.1%.

Turning to `O=C(Cn1nc2c(cc1=O)CCCC2)Nc1ccc(F)cc1F`, the “activity change, negative = cytotoxicity” value is inactive: -2.46%. As for `COc1ccc(CCNC(=O)c2c(O)nc3cc(C)ccn3c2=O)cc1OC`, the figure is inactive: 1.86%; as for `COc1ccc(-n2nc(C(=O)NCCc3ccc(Cl)cc3)c3c4ccccc4n(C)c3c2=O)cc1Cl`, inactive: 18.1%.
